Data as given in the supplement of paper PMC12645437, “Orthogonal IMiD-Degron Pairs Induce Selective Protein Degradation in Cells” (ACS Chemical Biology, 2025).
Some of the results follow.

B1: Q9UKT9 (peptide)
chain: FICNQCGHKFTQKGNLLRHIKL
B2: Q9UKT9 (peptide)
chain: FVCNQCGHLFTQKGNLLRHIKL
B3: Q9UKT9 (peptide)
chain: LTCEICGFHCTQKGNLLRHIKL
B4: Q9UKT9 (peptide)
chain: FHCNQCGRCFTQKGNLLRHIKL
B5: Q9UKT9 (peptide)
chain: FICNQCGHLFTQKGNLLRHIKL
B6: Q9UKT9 (peptide)
chain: FTCNQCGHFFTQKGNLLRHIKL
B7: Q9UKT9 (peptide)
chain: FSCEQCGAFFTQKGNLLRHIKL
B8: Q9UKT9 (peptide)
chain: FLCNQCGRSFTQKGNLLRHIKL
B9: Q9UKT9 (peptide)
chain: LCCPICGFGCTQKGNLLRHIKL
B10: Q9UKT9 (peptide)
chain: LWCEICGFQCTQKGNLLRHIKL
B11: Q9UKT9 (peptide)
chain: FNCPICGRCFTQKGNLLRHIKL
B12: Q9UKT9 (peptide)
chain: FGCSVCGHVFTQKGNLLRHIKL
B13: Q9UKT9 (peptide)
chain: FMCPQCGAFFTQKGNLLRHIKL
B14: Q9UKT9 (peptide)
chain: FWCDICGAAFTQKGNLLRHIKL
B15: Q9UKT9 (peptide)
chain: FNCNICGACFTQKGNLLRHIKL
B16: Q9UKT9 (peptide)
chain: FNCNQCGHMFTQKGNLLRHIKL
B17: Q9UKT9 (peptide)
chain: FVCPICGAYFTQKGNLLRHIKL
B18: Q9UKT9 (peptide)
chain: FTCPICGREFTQKGNLLRHIKL
B19: Q9UKT9 (peptide)
chain: FGCPVCGAFFTQKGNLLRHIKL
B20: Q9UKT9 (peptide)
chain: FECPVCGALFTQKGNLLRHIKL
B21: Q9UKT9 (peptide)
chain: FICEICGACFTQKGNLLRHIKL
B22: Q9UKT9 (peptide)
chain: FNCPICGHFFTQKGNLLRHIKL
B23: Q9UKT9 (peptide)
chain: FHCEQCGAYFTQKGNLLRHIKL
B24: Q9UKT9 (peptide)
chain: FWCEVCGACFTQKGNLLRHIKL
B25: Q9UKT9 (peptide)
chain: FCCEICGHHFTQKGNLLRHIKL
B26: Q9UKT9 (peptide)
chain: FGCPICGADFTQKGNLLRHIKL
B27: Q9UKT9 (peptide)
chain: FHCPICGANFTQKGNLLRHIKL
B28: Q9UKT9 (peptide)
chain: FMCPICGRSFTQKGNLLRHIKL
B29: Q9UKT9 (peptide)
chain: FICSVCGHPFTQKGNLLRHIKL
B30: Q9UKT9 (peptide)
chain: FVCNQCGRIFTQKGNLLRHIKL
B31: Q9UKT9 (peptide)
chain: LYCPICGFICTQKGNLLRHIKL
B32: Q9UKT9 (peptide)
chain: FCCNQCGAVFTQKGNLLRHIKL

target: no compound (DMSO); assay: log2 fold change of degron read counts, EGFP-low vs EGFP+ sorted cells; higher = lower degron-EGFP level without compound (poor expression or instability); details: compound: DMSO control; 18 h
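Also: jurkat cells carrying a lentiviral library of mutant zinc finger degrons fused to EGFP plus mCherry, mCherry+ cells FACS sorted, degron abundance counted by next-generation sequencing.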

Sequence | log2 fold change of degron read counts
B1 | -0.698
B2 | -0.213
B3 | -0.56
B4 | 0.0934
B5 | 0.0385
B6 | 0.727
B7 | -1.33
B8 | -0.404
B9 | 1.14
B10 | 0.802
B11 | -0.831
B12 | 0.94
B13 | 0.775
B14 | -1.47
B15 | -0.861
B16 | 0.751

Sequence | log2 fold change of degron read counts
B17 | 0.919
B18 | -0.238
B19 | 0.705
B20 | -1.12
B21 | -1.83
B22 | 0.625
B23 | -0.847
B24 | -0.93
B25 | -2.05
B26 | -0.43
B27 | -0.0257
B28 | 0.0664
B29 | -0.0295
B30 | 0.664
B31 | 1.81
B32 | 0.0534
